Among all 39,000 compounds or so, about 220 (0.56%) showed activity. The list shows a part of the results.
These compounds were tested on Escherichia coli K-12 BW25113 (assay: relative growth (OD600 normalised to plate interquartile mean) (fraction); higher = less growth inhibition, active = 0.2 or less). Settings: 50 µM; LB; incubation time: overnight (16-24 h).
`CC(=O)N(O)CCCCCNC(=O)CC(O)(CC(=O)NCCCCCN(O)C(C)=O)C(=O)O` was tested, and the relative growth was inactive: 0.98. For `COCC(=O)N1[C@@H]2c3ccc(C4=CCCCC4)c(=O)n3C[C@@H]2[C@@H](CO)[C@@H]1C(=O)N1CCN(C)CC1`, the relative growth was inactive: 1. For `CC(=O)N(C)C[C@@H]1Oc2ncc(C#C[C@H](C)O)cc2C(=O)N([C@@H](C)CO)C[C@@H]1C`, the relative growth was inactive: 1.01. In the case of `CC(C)NC(=O)N(C)C[C@@H]1Oc2ncc(-c3ccc(C(=O)N(C)C)cc3)cc2C(=O)N([C@H](C)CO)C[C@@H]1C`, the relative growth is reported as inactive: 0.988. `NCCC1=CSC2=NCCN12` was tested, and the relative growth was inactive: 1.05. For `CC(C)(N)c1ccccc1Br`, the relative growth was inactive: 1. With `O=C(C[C@@H]1CC[C@H]2[C@@H](COC[C@H](O)CN2S(=O)(=O)c2cccc(Cl)c2)O1)NCCCN1CCOCC1` the relative growth was inactive: 0.985. For `CC(C)[C@@H](CO)N1C(=O)[C@@H]2[C@H]3C(=O)O[C@H](C)CC/C=C\[C@H]3O[C@]23C=CCN(Cn2nnc4ccccc42)C(=O)[C@@H]13`, the relative growth was inactive: 1. `COCC(=O)N1CCCc2c(C#N)nn(C)c2C1` was tested, and the relative growth was inactive: 1. `CC(C)NC(=O)Nc1cccc2c1O[C@@H](CN(C)S(=O)(=O)c1cn(C)cn1)[C@@H](C)CN([C@H](C)CO)C2=O` was tested, and the relative growth was inactive: 0.972. In the case of `COCC(=O)N1[C@H](C(=O)N2CCOCC2)[C@@H](CO)[C@@H]2Cn3c(ccc(C4=CCCCC4)c3=O)[C@@H]21`, the relative growth is reported as inactive: 1.04. In the case of `CC(C)NC(=O)Nc1ccc2c(c1)CC(=O)N([C@@H](C)CO)C[C@H](C)[C@H](CN(C)C(=O)Nc1ccc3c(c1)OCO3)O2`, the relative growth is reported as inactive: 1.02. With `C[C@@H]1CN([C@@H](C)CO)C(=O)c2cc(NC(=O)C3CCCCC3)ccc2O[C@H]1CN(C)C(=O)Nc1cccc2ccccc12` the relative growth was inactive: 1.02. For `CCS(=O)(=O)N(C)C[C@@H]1OCc2ccccc2-c2c(n(C)c3ccccc23)C(=O)N([C@@H](C)CO)C[C@@H]1C`, the relative growth was inactive: 0.999. For `Cc1ccc(-c2ccc3c(c2)O[C@@H](CN(C)C(=O)NC(C)C)[C@@H](C)CN([C@@H](C)CO)S3(=O)=O)cc1`, the relative growth was inactive: 0.995. In the case of `CO[C@H]1CN(C)C(=O)c2ccc(NC(=O)C3CCOCC3)cc2OC[C@H](C)N(Cc2cccnc2)C[C@H]1C`, the relative growth is reported as inactive: 0.987. For `C[C@H](CO)N1C[C@H](C)[C@@H](CN(C)C(=O)Cc2ccccn2)Oc2ncc(C#CC3CCCC3)cc2C1=O`, the relative growth was inactive: 0.999. For `Cc1noc(C)c1NC(=O)N(C)C[C@@H]1OCCCC[C@H](C)Oc2ccc(NS(=O)(=O)c3ccc(Cl)cc3)cc2C(=O)N([C@@H](C)CO)C[C@H]1C`, the relative growth was inactive: 1.01. For `O=C(C[C@@H]1CC[C@@H]2[C@H](COC[C@H](O)CN2S(=O)(=O)c2ccc(Cl)cc2)O1)NCC1CCCCC1`, the relative growth was inactive: 1.02. In the case of `C[C@@H]1CN([C@@H](C)CO)C(=O)c2cccc(NS(=O)(=O)c3cn(C)cn3)c2O[C@H]1CN(C)Cc1ccc(C(=O)O)cc1`, the relative growth is reported as inactive: 1. For `C[C@@H]1CN([C@H](C)CO)C(=O)c2cccc(NC(=O)Nc3ccc(F)cc3)c2O[C@H]1CN(C)C(=O)Nc1ccc(C(F)(F)F)cc1`, the relative growth was inactive: 1. In the case of `COc1ccc(S(=O)(=O)N(C)C[C@@H]2Oc3ccc(NC(=O)Cn4cnnn4)cc3CC(=O)N([C@@H](C)CO)C[C@@H]2C)cc1`, the relative growth is reported as inactive: 0.989. In the case of `C[C@@H]1CN([C@@H](C)CO)C(=O)c2cc(NS(C)(=O)=O)ccc2O[C@@H](C)CCCCO[C@@H]1CN(C)C(=O)c1ccncc1`, the relative growth is reported as inactive: 0.986. For `COc1cc(CC=Cc2ccccc2)c(OC)cc1O`, the relative growth was inactive: 1.18. For `C[C@@H]1CCCCO[C@H](CN(C)Cc2ccc(C(F)(F)F)cc2)[C@@H](C)CN([C@@H](C)CO)C(=O)c2cc(NC(=O)c3ccccc3)ccc2O1`, the relative growth was inactive: 0.956. With `Cl.c1ccc2c(c1)CCCC2C1=NCCN1` (stereo unspecified) the relative growth was inactive: 1.03. `Cc1noc(C)c1S(=O)(=O)N(C)C[C@H]1Oc2ccc(NC(=O)Nc3ccccc3)cc2CC(=O)N([C@H](C)CO)C[C@@H]1C` was tested, and the relative growth was inactive: 1. With `CC(=O)N[C@@H](CCC(=O)O)C(=O)O` the relative growth was inactive: 0.989. `C[C@H]1CCCCO[C@H](CN(C)C(=O)CCC(F)(F)F)[C@@H](C)CN([C@@H](C)CO)C(=O)c2cc(NC(=O)NC3CCCCC3)ccc2O1` was tested, and the relative growth was inactive: 1.01. `COc1cccc(C#Cc2ccc3c(c2)O[C@@H](CN(C)C(=O)CN2CCOCC2)[C@@H](C)CN([C@@H](C)CO)S3(=O)=O)c1` was tested, and the relative growth was inactive: 0.95. With `COc1ccc(S(=O)(=O)Nc2ccc3c(c2)C(=O)N([C@H](C)CO)C[C@H](C)[C@@H](CN(C)C(=O)Nc2ccccc2)OCCCC[C@@H](C)O3)cc1` the relative growth was inactive: 1.03. `C[C@@H]1CCCCO[C@@H](CN(C)C(=O)NC2CCCCC2)[C@@H](C)CN([C@H](C)CO)C(=O)c2cc(NC(=O)Nc3ccc(F)cc3)ccc2O1` was tested, and the relative growth was inactive: 0.979. In the case of `C[C@@H]1CN([C@H](C)CO)C(=O)c2cc(NS(C)(=O)=O)ccc2O[C@@H]1CN(C)S(C)(=O)=O`, the relative growth is reported as inactive: 0.992. For `C[C@@H]1CCCCO[C@@H](CN(C)S(C)(=O)=O)[C@@H](C)CN([C@H](C)CO)C(=O)c2cc(NC(=O)CCCN(C)C)ccc2O1`, the relative growth was inactive: 0.977. `Cn1nc(CNc2ncccn2)c2c1CNCC2` was tested, and the relative growth was inactive: 1.05. With `C[C@H](CO)N1C[C@H](C)[C@H](CN(C)Cc2cccc(C(=O)O)c2)Oc2ncc(C#CCN(C)C)cc2C1=O` the relative growth was inactive: 0.981. `CS(=O)(=O)N1CC[C@]2(COCc3cnc(N4CCOCC4)nc32)C1` was tested, and the relative growth was inactive: 1.04. For `CNC[C@@H]1OCCCC[C@@H](C)Oc2ccc(NC(=O)Nc3ccc(C(F)(F)F)cc3)cc2C(=O)N([C@@H](C)CO)C[C@@H]1C`, the relative growth was inactive: 0.984. With `C=CCOc1ccc(CNn2nnnc2N)cc1` the relative growth was inactive: 0.984. With `Cc1noc(C)c1S(=O)(=O)N(C)C[C@@H]1Oc2ccc(NC(=O)NC3CCCCC3)cc2CC(=O)N([C@H](C)CO)C[C@H]1C` the relative growth was inactive: 1.01. For `CC(=O)N1CCn2c(-c3cnn(C)c3)cnc2C12CCN(S(=O)(=O)C1CC1)CC2`, the relative growth was inactive: 0.981.

Reference: the supplement of paper PMC9446081
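Also: static incubation at 37 °C against the wild-type strain, values averaged over two biological replicates.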
